Reference: patent US7132252B2, “Methods for detecting the interaction of compounds with cytochrome P450 using optical molecular sensors” (Invitrogen Corporation, priority 1998, dated 2006)

Assays:
Assay type in all cases: biochemical, human
[1] = substrate: O=c1ccc2nc3ccc(OCOCc4ccccc4)cc3oc-2c1; test: Kinetics of BOMR and BR toward CYP 3A4 (FIG. 4); conditions: other: from FIG. 4 data
Source text: Whichever of the four abstractable hydrogen atoms (designated H^1 and H^2 in this representation of BOMR) is removed in the initial reaction step, with reference to Reaction Scheme 1 of FIG. 1, the hydroxylation product will spontaneously decompose to the free resorufin dye. In addition, the benzyloxy group, attached to the carbon carrying the two hydrogens designated H^2, contributes an inductive electronic effect on that carbon, which can stabilize the radical formed during abstraction of one of the H^2 hydrogens by a cytochrome P450.
Optimization of assay conditions was, and is preferably, accomplished through statistically validated Design of Experiments methodologies, using the commercial software package “Design-Expert®” produced by Stat-Ease® Inc. The data shown in FIGS. 4 and 5 were obtained with initial optimization.

[2] = substrate: O=C(O)c1ccccc1-c1c2ccc(=O)cc-2oc2cc(OCOCc3ccccc3)ccc12; test: Kinetic properties of fluorescein-based fluorogenic substrates with CYP 3A4; conditions: pH 8.0
Experimental: Dibenzylfluorescein (DBF) was purchased form Gentest, Woburn, Mass. […] DBF, BOMF and DBOMF were diluted from a stock solution of 2 mM in acetonitrile to a 4×concentration of 80 μM in 100 mM K+ phosphate buffer. Seven 1:2 dilutions were made of each substrate of which 25 μl was added to the appropriate wells. […] The cytochrome P450 isozyme CYP3A4 was diluted to give a 0.5 pmol enzyme per well and added in a volume of 10 μl/well in K+ phosphate, pH 8.0. Enzymatic conversion of the substrate to products was allowed to proceed for 1 hour with fluorescence reads taken every four minutes on a fluorescence microtiter plate reader. The solution was illuminated using an 485/20 nm excitation filter and fluorescence emission was detected through a 530/25 nm the emission filter.

[3] = substrate: O=c1ccc2nc3ccc(OCc4ccccc4)cc3oc-2c1; test: Kinetic properties of fluorogenic substrates with CYP 3A4; conditions: other: ( ) = from Michaelis-Menten fit; — = too low to quantify
Source text: (§1) For further understanding these terms in the context of this invention, attention is directed to FIG. 4 and the analysis of FIG. 4.
(§2) (respectively, MFC and MR).

[4] = substrate: O=c1ccc2nc3ccc(OCOCc4ccccc4)cc3oc-2c1; test: as above; conditions: other: ( ) = from Michaelis-Menten fit; — = too low to quantify
Source text: as §1, §2

[5] = substrate: COCOc1ccc2nc3ccc(=O)cc-3oc2c1; test: as above; conditions: other: ( ) = from Michaelis-Menten fit; — = too low to quantify
Source text: as §1, §2

[6] = substrate: O=C(OCc1ccccc1)c1c2oc3cc(OCc4ccccc4)ccc3nc-2ccc1=O; test: as above; conditions: other: ( ) = from Michaelis-Menten fit; — = too low to quantify
Source text: as §1, §2

[7] = substrate: Cc1cc(=O)oc2cc(OCOCc3ccccc3)ccc12; test: as above; conditions: other: ( ) = from Michaelis-Menten fit; — = too low to quantify
Source text: as §1, §2

[8] = substrate: CCCCCCCCOCOc1ccc2cc(C#N)c(=O)oc2c1; test: as above; conditions: other: ( ) = from Michaelis-Menten fit; — = too low to quantify
Source text: as §1, §2

[9] = substrate: CC1(C)C2=C(Cl)C(=O)C(Cl)=CC2=Nc2ccc(OCOCc3ccccc3)cc21; test: as above; conditions: other: ( ) = from Michaelis-Menten fit; — = too low to quantify
Source text: as §1, §2

[10] = substrate: N#Cc1cc2ccc(OCOCc3ccccc3)cc2oc1=O; test: as above; conditions: other: ( ) = from Michaelis-Menten fit; — = too low to quantify
Source text: as §1, §2

[11] = substrate: COc1ccc(COc2ccc3c(C(F)(F)F)cc(=O)oc3c2)cc1; test: as above; conditions: other: ( ) = from Michaelis-Menten fit; — = too low to quantify
Source text: as §1, §2

[12] = substrate: CCOCOc1ccc2nc3ccc(=O)cc-3oc2c1; test: as above; conditions: other: ( ) = from Michaelis-Menten fit; — = too low to quantify
Source text: as §1, §2

[13] = substrate: CCCCCCCCOCOc1ccc2nc3ccc(=O)cc-3oc2c1; test: as above; conditions: other: ( ) = from Michaelis-Menten fit; — = too low to quantify
Source text: as §1, §2

B1: CYP 3A4 (Homo sapiens) (protein)
chain: MALIPDLAMETWLLLAVSLVLLYLYGTHSHGLFKKLGIPGPTPLPFLGNILSYHKGFCMFDMECHKKYGKVWGFYDGQQPVLAITDPDMIKTVLVKECYSVFTNRRPFGPVGFMKSAISIAEDEEWKRLRSLLSPTFTSGKLKEMVPIIAQYGDVLVRNLRREAETGKPVTLKDVFGAYSMDVITSTSFGVNIDSLNNPQDPFVENTKKLLRFDFLDPFFLSITVFPFLIPILEVLNICVFPREVTNFLRKSVKRMKESRLEDTQKHRVDFLQLMIDSQNSKETESHKALSDLELVAQSIIFIFAGYETTSSVLSFIMYELATHPDVQQKLQEEIDAVLPNKAPPTYDTVLQMEYLDMVVNETLRLFPIAMRLERVCKKDVEINGMFIPKGVVVMIPSYALHRDPKYWTEPEKFLPERFSKKNKDNIDPYIYTPFGSGPRNCIGMRFALMNMKLALIRVLQNFSFKPCKETQIPLKLSLGGLLQPEKPVVLKVESRDGTVSGA
Km [1]: 1.9 µM
kcat [1]: 0.5 s⁻¹
Km [2]: 15.0 µM
kcat [2]: 0.15 s⁻¹
kcat/Km [2]: 10000 M⁻¹ s⁻¹
Km [3]: 5.3 µM
kcat [3]: 0.00167 s⁻¹
kcat/Km [3]: 377 M⁻¹ s⁻¹
Km [4]: 1.4 µM
kcat [4]: 0.0183 s⁻¹
kcat/Km [4]: 13100 M⁻¹ s⁻¹
Km [5]: 6 µM
kcat [5]: 0.001 s⁻¹
kcat/Km [5]: 167 M⁻¹ s⁻¹
Km [6]: 2.7 µM
kcat [6]: 0.0138 s⁻¹
kcat/Km [6]: 5123 M⁻¹ s⁻¹
Km [7]: 22.0 µM
kcat [7]: 0.0667 s⁻¹
kcat/Km [7]: 3030 M⁻¹ s⁻¹
Km [8]: 4.4 µM
kcat [8]: 0.0198 s⁻¹
kcat/Km [8]: 4508 M⁻¹ s⁻¹
Km [9]: 7 µM
kcat [9]: 0.1 s⁻¹
kcat/Km [9]: 14286 M⁻¹ s⁻¹
Km [10]: (89.0) microM
Km [11]: 13 µM
kcat [11]: 0.012 s⁻¹
kcat/Km [11]: 897 M⁻¹ s⁻¹
Km [12]: 4.5 µM
kcat [12]: 0.00167 s⁻¹
kcat/Km [12]: 489 M⁻¹ s⁻¹
Km [13]: 1.4 µM
kcat [13]: 0.011 s⁻¹
kcat/Km [13]: 7857 M⁻¹ s⁻¹
